Among the data in the antibiotic and cytotoxicity screens of Wong et al. (2023) are cytotoxicity call values, retold here.

This is one part of the list.

The test system of one experiment is HSkMC (human skeletal muscle cells). The experiment can be described thus: cytotoxicity call (relative viability < 0.9). To be noted: 10 µM.
For the compound `C=CCOC(=O)[C@H]1[C@@H]2C(=O)O[C@@H](c3ccccc3)[C@@H](c3ccccc3)N2[C@@H](c2ccc(OCCOC(=O)[C@H]3C[C@H]4C(=O)N[C@@H](CC(C)C)C(=O)N4[C@H]3c3ccc(O)cc3)cc2)[C@]12C(=O)Nc1ccc(I)cc12`, the cytotoxicity call is “inactive”. Regarding `CC(C)NC(=O)Nc1cccc2c1O[C@H](CN(C)S(=O)(=O)c1ccccc1)[C@@H](C)CN([C@@H](C)CO)C2=O`, the cytotoxicity call is “inactive”.

For `Cc1ccc(S(=O)(=O)Nc2ccc3c(c2)CC(=O)N([C@H](C)CO)C[C@H](C)[C@H](CN(C)Cc2ccncc2)O3)cc1`, the cytotoxicity call is “inactive”. Still for that read-out and setting: the entry for `COc1ccc(NC(=O)N(C)C[C@@H]2OCCCC[C@H](C)Oc3ccc(NS(=O)(=O)c4cccs4)cc3C(=O)N([C@H](C)CO)C[C@H]2C)cc1` is “inactive”.

With `COc1ccc(S(=O)(=O)Nc2ccc3c(c2)C(=O)N([C@@H](C)CO)C[C@H](C)[C@@H](CN(C)C(=O)Nc2cccc4ccccc24)O3)cc1`, the cytotoxicity call was “inactive”. On the same count and under the same terms, the entry for `CN(C)CC(=O)N[C@H]1CC[C@@H](CCNC(=O)C2CC2)O[C@@H]1CO` is “inactive”. The same measure, in the same setting: the value for `CC(=O)c1cc(Cl)c(C)cc1O` was “inactive”; that for `C[C@@H]1CN([C@H](C)CO)C(=O)c2cc(NS(C)(=O)=O)ccc2O[C@@H](C)CCCCO[C@H]1CN(C)S(=O)(=O)c1cn(C)cn1` was “inactive”. Same read-out and setting: the entry for `Cn1cnc(CN)c1` is “inactive”.

In the case of `C[C@@H]1CCCCO[C@H](CN(C)Cc2ccc(Cl)c(Cl)c2)[C@@H](C)CN([C@@H](C)CO)C(=O)c2cc(NC(=O)Nc3ccc(C(F)(F)F)cc3)ccc2O1`, the cytotoxicity call was “inactive”. With `CN1CCN(C(=O)C[C@@H]2CC[C@H]3[C@@H](COc4ccc(NC(=O)c5cccs5)cc4C(=O)N3C)O2)CC1`, the cytotoxicity call is “inactive”.

Another experiment has as its system HepG2. The experiment is described as follows: cytotoxicity call (relative viability < 0.9). To be noted: 10 µM.
On to `COc1ccc(NC(=O)Nc2ccc3c(c2)C(=O)N([C@H](C)CO)C[C@@H](C)[C@H](CN(C)S(=O)(=O)c2ccc(F)cc2)OCCCC[C@@H](C)O3)cc1`, for which the cytotoxicity call was “inactive”. The same measure, in the same setting: the value for `COc1cccc(S(=O)(=O)N(C)C[C@@H]2Oc3ncc(C#Cc4ccc(F)cc4)cc3C(=O)N([C@H](C)CO)C[C@@H]2C)c1` was “inactive”.

For the compound `C[C@H](CO)N1C[C@H](C)[C@@H](CN(C)Cc2ccc(C(=O)Nc3ccccc3N)cc2)Oc2c(NC(=O)Nc3ccc4c(c3)OCO4)cccc2C1=O`, the cytotoxicity call was “inactive”.

Turning to `COc1ccc(NC(=O)Nc2ccc3c(c2)C(=O)N([C@H](C)CO)C[C@@H](C)[C@@H](CN(C)CC2CCCCC2)OCCCC[C@H](C)O3)cc1`, the cytotoxicity call was “active”. Take `CCCCOCCOc1ccc(-c2ccc3c(c2)/C=C(/C(=O)Nc2ccc([S@@](=O)Cc4cncn4CCC)cc2)CCCN3CC(C)C)cc1`: the cytotoxicity call was “inactive”. Still for that read-out and setting: the entry for `Cc1nc(-c2ccccc2)cs1` is “inactive”; for `COc1ccccc1CNC(=O)C[C@H]1C[C@H]2c3cc(NC(=O)C4CCOCC4)ccc3O[C@H]2[C@H](CO)O1` it is “inactive”.

Consider `Cc1ccc(S(=O)(=O)Nc2ccc3c(c2)C(=O)N([C@@H](C)CO)C[C@H](C)[C@H](CN(C)S(=O)(=O)c2cccs2)O3)cc1`, for which the cytotoxicity call is “inactive”.

With `Cc1noc(C)c1S(=O)(=O)Nc1ccc2c(c1)CC(=O)N([C@@H](C)CO)C[C@@H](C)[C@@H](CN(C)Cc1ccc(C(=O)O)cc1)O2`, the cytotoxicity call was “inactive”.

For `C[C@H](CO)N1C[C@H](C)[C@H](CN(C)S(=O)(=O)c2cccs2)Oc2ccc(NC(=O)C3CC3)cc2CC1=O`, the cytotoxicity call is “inactive”.

For `C[C@@H]1CN([C@@H](C)CO)C(=O)c2cc(NC(=O)Nc3ccc(C(F)(F)F)cc3)ccc2O[C@@H](C)CCCCO[C@@H]1CN(C)C(=O)Nc1ccccc1`, the cytotoxicity call was “inactive”. Still for that read-out and setting: the entry for `COc1cc(OC)c2c(=O)c(O)c(-c3ccc(OC)c(OC)c3)oc2c1` is “inactive”; for `C[C@H](CO)N1C[C@H](C)[C@H](CN(C)S(=O)(=O)c2cn(C)cn2)Oc2c(NC(=O)C3CCCCC3)cccc2C1=O` it is “inactive”. Take `COc1ccc(CN(C)C[C@@H]2OCCCC[C@H](C)Oc3ccc(NC(=O)NC4CCCCC4)cc3C(=O)N([C@@H](C)CO)C[C@@H]2C)cc1`: the cytotoxicity call is “active”. The same measure, in the same setting: the value for `C[C@H](CO)N1C[C@H](C)[C@@H](CN(C)Cc2ccc3c(c2)OCO3)Oc2ncc(C#CCN(C)C)cc2C1=O` was “inactive”; that for `Cc1noc(C)c1S(=O)(=O)Nc1cccc2c1O[C@H](CN(C)C(=O)NC(C)C)[C@H](C)CN([C@H](C)CO)C2=O` was “inactive”. On to `NCCCC[C@H](NC(=O)[C@@H]1CCCN1C(=O)[C@@H]1CSSC[C@H](N)C(=O)N[C@@H](Cc2ccccc2)C(=O)N[C@@H](Cc2ccccc2)C(=O)NC(CCC(N)=O)C(=O)N[C@@H](CC(N)=O)C(=O)N1)C(=O)NCC(N)=O` (stereo partly drawn), for which the cytotoxicity call is “inactive”.
